The list shows a part of the results.
test system: S. aureus RN4220; experiment: growth inhibition call (relative growth <= 0.2); conditions: 50 µM

Growth inhibition call, inactive:
Cc1ccc(NC(=O)Nc2cc(C(F)(F)F)ccc2F)cc1Nc1ccc2c(c1)NC(=O)/C2=C\c1ccc[nH]1
C[C@@H]1CCCCO[C@@H](CN(C)S(=O)(=O)c2cn(C)cn2)[C@@H](C)CN([C@H](C)CO)C(=O)c2cc(NC(=O)CCCN(C)C)ccc2O1
C[C@H](CO)N1C[C@H](C)[C@H](CN(C)Cc2ccc(C(=O)Nc3ccccc3N)cc2)OCCCC[C@H](C)Oc2ccc(NC(=O)C3CCCCC3)cc2C1=O
C[C@H]1CCC2=C(CCC[C@@]2(C)C(=O)O)[C@@]1(C)CCc1ccoc1
C[C@H](CO)N1C[C@H](C)[C@@H](CN(C)Cc2ccc(C(F)(F)F)cc2)Oc2c(NC(=O)CCCCCC(=O)Nc3ccccc3N)cccc2C1=O
CS(=O)(=O)NC[C@@]12COC[C@H]1CN(C(=O)c1cnccn1)C2
COc1cc(O)c(C(=O)c2ccccc2)cc1S(=O)(=O)O
C[C@@H]1CN([C@H](C)CO)C(=O)c2cc(NS(=O)(=O)c3cccs3)ccc2O[C@H]1CN(C)S(=O)(=O)c1ccccc1
CN1C(=O)c2cc(NC(=O)C3CCOCC3)ccc2OC[C@@H]2O[C@@H](CC(=O)NCc3ccc4c(c3)OCO4)CC[C@@H]21
COc1ccc(NC(=O)N(C)C[C@H]2OCCCC[C@@H](C)Oc3ccc(NC(=O)NC4CCCCC4)cc3C(=O)N([C@H](C)CO)C[C@H]2C)cc1

— the antibiotic and cytotoxicity screens of Wong et al. (2023)
